# According to the supplement of paper PMC11417369:
# ± gives the standard deviation of the averaged measurements. The list shows a part of the results.
# Test system: PfAP2-I AP2 domain 3 (GST-tagged)
# Experiment: gcPBM binding intensity (ln(normalized median fluorescence intensity)); higher = stronger DNA binding
# In short: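 DNA-binding domains from P. falciparum, fused to GST and produced in E. coli, were put on an Agilent 4 × 180k double-stranded probe array for 1 h in 1× PBS holding 1% milk, 0.2 mg/ml BSA, 0.5% salmon testes DNA and 0.03% Triton X-100. Probes were primer-extended, 36 bp long and drawn from intergenic genomic regions, with negative controls included. After Alexa488 anti-GST antibody detection and a 488 nm scan, binding intensity was set as the highest Masliner-normalised natural-log median intensity across replicate spots of either probe orientation.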
row,Sequence,gcPBM binding intensity (ln)
1,TTGGTATATTATAAAAGTACACATAATAAAAAATTT [XGTACX_site7985],8.05 ± 0.4
2,TTTTTTTCAATATTTGCACACGATTAAAATATTTAA [CACACA_site5266],9.375 ± 0.035
3,TATTATATATATATATGTACATATTGTATGTTATAT [XGTACX_site5303],7.81 ± 0.45
4,CAAACATATTAATGTACACACACCCACCCACAAACA [CACACA_site2752],8.99 ± 0.73
5,TATGTGAATATTGAGGTGCGGTTGTTAAAATTTATA [GTGCAC_site9915],8.9
6,TTAAATATTTTTTATACACACATTTCTTATTTAACT [CACACA_site229],7.74 ± 0.65
7,TAATTATTATTAATAGTACACACTATGGCATTTCAA [CACACA_site2488],7.74 ± 0.41
8,AGTAGTCTGGAGAAGAGTACACAGTATCTGGTAGCT [XGTACX_site2042],7.64 ± 0.64
9,ACATTAACATTGTTGGTGCAAAATTAATATGTTTTT [GTGCAC_site9673],10.6 ± 0.28
10,GGAAAATGAAAACAAGGTACACATAAGAACAAACAA [XGTACX_site1221],8.17 ± 0.75
11,AATAGGGTCATTCAAAAAAAAAAAAAATAATAATAC [CACACA_negctrl_site644],7.78 ± 0.71
12,AAATTTGCTTTACCAGTGCAAAAAAAAAAAAAAAAA,10.3 ± 0.32
13,TGTTTTTATCCTTATGGTACAGTATAATACTTACAG [XGTACX_site6381],7.88 ± 0.54
14,AAATCACATAAAAATAGTACTTTTTTTTTTTTTTTT [XGTACX_site2696],8.5 ± 0.47
15,TATATGTTTAATTTCACACACAAATATGCATTTTAA [CACACA_site7881],7.74 ± 0.5
16,AAATAAATACTAGGCACACACACATATATATATATA [CACACA_site2079],9.12 ± 0.099
17,ATTGTAAGGAAACACACACACATATATATGTATATA [CACACA_site676],7.74 ± 0.52
18,ATTATTGTAATATTAGCACACATTACCTCACTACAA [CACACA_site2560],8.71 ± 0.37
19,ATATATATATATATATGTACGTATAATATATATATG [XGTACX_site2212],9.22 ± 0.58
20,ATTATTCAGGTAAAGTGTACAGGAGAAAAATAAAAT [XGTACX_site334],8.44 ± 0.54
21,CGCACCCAAATATATACACACATATATATATATATA [CACACA_site1651],9.36 ± 0.38
22,TTAATATTCCAGCTTTGTACATATATATATTATAAA [XGTACX_site7954],7.86 ± 0.38
23,TTAATGGAAAAATAGGCACACACACCGATATACATA [CACACA_site8356],8.05 ± 0.71

row,Sequence,gcPBM binding intensity (ln)
1,TTTTACATAAATTATAAATATATAAAATAAAAAAAA [CACACA_negctrl_site1499],7.48 ± 0.71
2,CATATATATATTTTTTGTACATATATTTTTACATAT [XGTACX_site8419],7.95 ± 0.38
3,AAAAAGAAGAAGAAATGTACGTAACTATATATTTAT [XGTACX_site4362],7.76 ± 0.76
4,AGTACATTATAGAATACACACCTATATATATATATA [CACACA_site4447],9.4 ± 0.44
5,AATTATTAAATATGTACACACGTACATTTTATAAAT [CACACA_site5341],7.71 ± 0.29
6,TAATACATACACACATGTACATACAGAAATAAATAA [XGTACX_site3245],7.96 ± 0.2
7,TATTTTGTTCTTTCCACACACAAATACATATATTGT [CACACA_site4071],8.22 ± 0.53
8,AATATAAAAATGTTTACACACACACGGAAATATATT [CACACA_site7226],8.01 ± 0.76
9,ATATATATATGTGGATGTACATATATCTCTTATTAT [XGTACX_site1748],8.89 ± 0.36
10,TAAAATTAATAAAATATTTTCACTTAATATATATAA [CACACA_negctrl_site1550],7.52 ± 0.34
11,ATGTTGTACAAACACACACACAAAAAAAAAATAAAA [CACACA_site2406],8.07 ± 0.17
12,GGCATATATATATGCACACATACATATATACATGTG [CACACA_site3859],9.63 ± 0.16
13,TACACATACAGACATACACACATACCCATATACTCA [CACACA_site5037],7.83 ± 0.42
14,ATATTATACGCATATGTGCGCATACATTTTTTTGCA [GTGCAC_site9540],10.2 ± 0.64
15,TTATTTACAAAACAAATCAAAATATCCAAAAGAATA [CACACA_negctrl_site1789],7.28 ± 0.33
16,GAAATTACTTTATAAACACACATTTATTTTATTTTA [CACACA_site7007],7.95 ± 0.26
17,TCATATTTATATAAATGTACTTAATTGGTTTCTTTA [XGTACX_site7848],7.66 ± 0.56
18,ATGTTATTAATAATTGCACACATTTTTTTTTTTTTT [CACACA_site3920],9.12 ± 0.23
19,AGATTGTAAGTAAACACACACACATATATATGTATA [CACACA_site675],7.57 ± 0.73
20,ATTCATTCCATACTTTAACACACAAATATATTTAAT [CACACA_site7930],8.14 ± 0.55
21,AAAAAAAAAAAAAACACACAGAAATATATATATATT [CACACA_site832],8.09 ± 0.52
22,AAAGGAAAAGTTGACTGTACATAAGTAAAAAATAAT [XGTACX_site788],8.05 ± 0.61
23,TTTATACAAATATGTACACACTAAATATATATTATG [CACACA_site4413],7.96 ± 0.33

row,Sequence,gcPBM binding intensity (ln)
1,TCTTTTATATATAATAATTATATATAACATTCAAAC [GTGCAC_negctrl_site112],7.89 ± 0.44
2,GTTAATCACCATGTGGTGCATATAAGGGCATATTAT [GTGCAC_site9748],11 ± 0.55
3,AATTAATAAAAAAGGTGTACAGTAAATGCAATAATC [XGTACX_site7956],9.1 ± 0.5
4,ATAAATTCATACATTTGTACACAAAAAAAAAAAAAA [XGTACX_site2435],8.12 ± 0.57
5,CCTTATACGATATTATGTACGCATATGTGCATTTTT [XGTACX_site1570],8.91 ± 0.21
6,ATTATTTGATTAAAGGTGCAAGGATAATAATAAAAC,9.47 ± 0.17
7,TAATGGTATAAAAAATGTACATGTTTTTTTACAATT [XGTACX_site4285],7.91 ± 0.53
8,ATATATATATATTTATGTACATATTATTTATTCTTT [XGTACX_site6567],9.21 ± 0.53
9,ACATATAATAAAATAGTGCATTGTTAGTTTTATATA,10.4 ± 0.42
10,TATTATATAATATACTGTACAATATCCATTATTTAC [XGTACX_site7091],7.81 ± 0.52
11,TATATTTACTTATATGCACACATAAATGTGAATTAT [CACACA_site9258],9.22
12,CTTAAAATATATTTAGTGCATATACTAATATATTAT,10.2 ± 0.45
13,TATATATATATATTATGTACATATATAAATTAACAT [XGTACX_site3368],9.12 ± 0.33
14,AATATAGGAATATGCACACATATATACATACATACA [CACACA_site1521],9.235 ± 0.078
15,TTTTTTAAAGTTTAAAGTACATATAAAAATATATAA [XGTACX_site5267],7.65 ± 0.2
16,TATGAAAAAAAAAAAAAAAAAAAAAAAAAAAAAAAA [XGTACX_negctrl_site587],8.29 ± 0.84
17,AAAAAAATAAAATATATATATATATATATATATATA [GTGCAC_negctrl_site706],9.55 ± 0.67
18,TATATATGGATATATACACACAACGGTTATAAATAT [CACACA_site6655],7.68 ± 0.55
19,AAGAAAAATACTACGTGTACCAAACTTCCTACCAAC [XGTACX_site1426],7.98 ± 0.67
20,TATATATATATATTATGTACATATAAATATATTTTT [XGTACX_site1509],9.31 ± 0.49
21,TGTAAATATAAAAGATAATGATAAAAGGGACATTTT [CACACA_negctrl_site661],7.81 ± 0.68
22,AATATATATATGTGTACACATCCAAAATAGGCATAC [CACACA_site5705],8.32 ± 0.52
23,ATATATATATAAATATGTACATATTTATATATGAAT [XGTACX_site3220],8.94 ± 0.092

row,Sequence,gcPBM binding intensity (ln)
1,ATCTATATTATAATAACACACATATATTATAGTATA [CACACA_site6330],7.75 ± 0.54
2,TTTTTATGTGTATATTATTACATTTACATCTTTAAC [CACACA_negctrl_site1676],7.84 ± 0.65
3,ACAAGACAACAAGGAAGTACTCATAAATATATTTGG [XGTACX_site1423],7.78 ± 0.46
4,CTCACATATATATATAGTACAATTTTTTTTTTTTTT [XGTACX_site5999],7.79 ± 0.49
5,ATGTAGAATTGTAAATGTACATGAAACACATATTCA [XGTACX_site3436],7.64 ± 0.59
6,ATAAAATTATCTACATGTACTCATATATATTTGTTT [XGTACX_site5911],7.99 ± 0.61
7,AGAGAGAAAGTTATAACATGCAACAATTTTTAGAAG [TGCATGCA_site1],7.91 ± 0.71
8,TATATATATATATGTGGTACATAAAATTATTATTTT [XGTACX_site4554],9.43 ± 0.41
9,CTTTAAACCCTGAACACACACAAATACACCCAAAAA [CACACA_site4297],8.61 ± 0.17
10,TTTGTATTAAAAAAAAAAAAAAAAAAAATGAATAAA [TGCATGCA_negctrl_site292],7.34 ± 0.41
11,TTTTTTTTTTTTTTTTTTTTTTTTCATTTGATATTA [TGCATGCA_negctrl_site112],8.3 ± 0.7
12,ATAACGGAAAAAAAAAGTACATGATATAAACATGAA [XGTACX_site8428],7.91 ± 0.29
13,AAAAATAAGATATATACACACATATAAATATAAATA [CACACA_site7396],7.47 ± 0.57
14,TTATTTATTCTATGTGCATGTTATTTTTTTTTTTCG [TGCATGCA_site262],8.16 ± 0.73
15,ATACTATTATATATATGTACATATATATGATGCTCT [XGTACX_site1771],7.93 ± 0.53
16,AAGGAGCCTATGAACACACACATGTACATATATTAA [CACACA_site4084],7.86 ± 0.54
17,TTCGTTCTTTTATGCACACTCAACATATAAATTAAA [CACACA_site1209],10.2 ± 0.32
18,TTATAATATATATGTAGTACTGTTTTTTTCTATTTT [XGTACX_site7749],7.78 ± 0.57
19,TGTACAAATATGTACACACACACATATATATATATA [CACACA_site584],9.3 ± 0.38
20,TATTATTTTAAAAATGCATGTTCATATGAAATAATA [TGCATGCA_site969],8.1 ± 0.57
